Results reported in PubChem BioAssay AID1745853 (National Center for Advancing Translational Sciences (NCATS), 2022).
The list shows a part of the results. These are further read-outs of the screen, such as a control signal, another cell line or another target. No call is given for them.

What was measured:
Assay in all cases: Primary Screen for Target Class Profiling of Small Molecule Inhibitors of Methyltransferases
[1] = molecular target: Glycine N-methyltransferase (Homo sapiens) (UniProt Q14749); details: purified enzyme, MTase-Glo SAH luminescence; measured here: GNMT inhibition; at 40 µM; stronger effect = lower value
Outline: (§1)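 Each enzyme was reacted with SAM and its substrate, with compounds tested once at 40 uM; SAH formed was read by MTase-Glo luminescence.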

[2] = molecular target: Guanidinoacetate N-methyltransferase (Homo sapiens) (UniProt Q14353); details: purified enzyme, MTase-Glo SAH luminescence; measured here: GAMT inhibition; at 40 µM; stronger effect = lower value
Outline: as §1

[3] = molecular target: Histamine N-methyltransferase (Homo sapiens) (UniProt P50135); details: purified enzyme, MTase-Glo SAH luminescence; measured here: HNMT inhibition; at 40 µM; stronger effect = lower value
Outline: as §1

[4] = molecular target: Nicotinamide N-methyltransferase (Homo sapiens) (UniProt P40261); details: purified enzyme, MTase-Glo SAH luminescence; measured here: NNMT inhibition; at 40 µM; stronger effect = lower value
Outline: as §1

[5] = molecular target: Phenylethanolamine N-methyltransferase (Homo sapiens) (UniProt P11086); details: purified enzyme, MTase-Glo SAH luminescence; measured here: PNMT inhibition; at 40 µM; stronger effect = lower value
Outline: as §1
% is scaled to controls: 0 for no effect and ±100 for the full control effect.

Structure (SMILES): O=S(=O)(NCCC1=CCCCC1)c1cccc(-c2nc(-c3ccccc3)no2)c1
- activity change, negative = inhibition [1]: -5.95%
- activity change, negative = inhibition [2]: -0.082%
- activity change, negative = inhibition [3]: -9.71%
- activity change, negative = inhibition [4]: -12.1%
- activity change, negative = inhibition [5]: -8.98%

Structure (SMILES): O=C1NCCCCCN(C(=O)C2CCCCC2)[C@H]2CCCC[C@@H]12
- activity change, negative = inhibition [1]: 0.943%
- activity change, negative = inhibition [2]: 5.77%
- activity change, negative = inhibition [3]: 2.58%
- activity change, negative = inhibition [4]: -1.26%
- activity change, negative = inhibition [5]: 13.3%

Structure (SMILES): CC1CCC(NC(=O)C2(C)Cn3c(cc4sccc43)C(=O)N2Cc2cccc(Cl)c2)CC1 (configuration not stated)
- activity change, negative = inhibition [1]: 1.1%
- activity change, negative = inhibition [2]: 0%
- activity change, negative = inhibition [3]: -0.097%
- activity change, negative = inhibition [4]: -3.16%
- activity change, negative = inhibition [5]: -2.29%

Structure (SMILES): O=C1NCCOCCN(C(=O)Cc2cccc(F)c2)[C@H]2CCC[C@@H]12
- activity change, negative = inhibition [1]: -0.636%
- activity change, negative = inhibition [2]: -3.1%
- activity change, negative = inhibition [3]: 2.81%
- activity change, negative = inhibition [4]: -4.44%
- activity change, negative = inhibition [5]: 9.66%

Structure (SMILES): C[C@]12C=CC(=O)C=C1CC[C@@H]1C2=CC[C@]2(C)[C@@H](C(=O)CN3CCN(c4cc(N5CCCC5)nc(N5CCCC5)n4)CC3)CC[C@@H]12
- activity change, negative = inhibition [1]: -14.7%
- activity change, negative = inhibition [2]: 10%
- activity change, negative = inhibition [3]: -0.288%
- activity change, negative = inhibition [4]: -6.43%
- activity change, negative = inhibition [5]: 2.6%

Structure (SMILES): CCCCNc1ccc(-c2ccc(CN3CCOCC3)cn2)c(NC2CCC(O)CC2)c1 (configuration not stated)
- activity change, negative = inhibition [1]: 2.73%
- activity change, negative = inhibition [2]: 5.11%
- activity change, negative = inhibition [3]: -4.22%
- activity change, negative = inhibition [4]: -10.8%
- activity change, negative = inhibition [5]: 1.73%

Structure (SMILES): Cc1cnc(-c2ccccc2)n1C1CCCN(S(=O)(=O)c2ccccc2)C1 (configuration not stated)
- activity change, negative = inhibition [1]: -28.8%
- activity change, negative = inhibition [2]: -2.02%
- activity change, negative = inhibition [3]: -9.15%
- activity change, negative = inhibition [4]: -10.8%
- activity change, negative = inhibition [5]: -4.54%

Structure (SMILES): COC1C(=O)CCC2(CO2)C1(O)C1(C)OC1CC=C(C)C (configuration not stated)
- activity change, negative = inhibition [1]: -11.3%
- activity change, negative = inhibition [2]: -4.95%
- activity change, negative = inhibition [3]: -12.4%
- activity change, negative = inhibition [4]: -14.7%
- activity change, negative = inhibition [5]: -10.7%

Structure (SMILES): COc1ccc2cc3n(c2c1)CC(C)(C(=O)NCC1CCCO1)N(Cc1ccc(C)cc1)C3=O (configuration not stated)
- activity change, negative = inhibition [1]: 1.77%
- activity change, negative = inhibition [2]: 6.1%
- activity change, negative = inhibition [3]: -1.69%
- activity change, negative = inhibition [4]: 7.6%
- activity change, negative = inhibition [5]: -0.883%

Structure (SMILES): C/C=C/C1OC2=C(C(=O)OC2(C)O)C(O)C1O (configuration not stated)
- activity change, negative = inhibition [1]: 0%
- activity change, negative = inhibition [2]: -0.89%
- activity change, negative = inhibition [3]: 8.56%
- activity change, negative = inhibition [4]: -10%
- activity change, negative = inhibition [5]: -0.794%

Structure (SMILES): COc1ccc(-c2nnc3n(CCCOC(C)C)c(=O)c4ccccc4n23)c(O)c1
- activity change, negative = inhibition [1]: -8.72%
- activity change, negative = inhibition [2]: 4.68%
- activity change, negative = inhibition [3]: -1.3%
- activity change, negative = inhibition [4]: 4.56%
- activity change, negative = inhibition [5]: -4.69%

Structure (SMILES): Cc1cnccc1CN(C)Cc1cc2n(n1)CCNC2
- activity change, negative = inhibition [1]: -1.94%
- activity change, negative = inhibition [2]: -0.239%
- activity change, negative = inhibition [3]: -1.48%
- activity change, negative = inhibition [4]: -2.02%
- activity change, negative = inhibition [5]: 2.37%

Structure (SMILES): CCCCN1C(=O)c2cc(C(=O)Nc3cccc(Cl)c3C)nn2CC1(C)C(=O)NC1CCCC1 (configuration not stated)
- activity change, negative = inhibition [1]: 2.19%
- activity change, negative = inhibition [2]: 4.24%
- activity change, negative = inhibition [3]: -4.16%
- activity change, negative = inhibition [4]: -2.74%
- activity change, negative = inhibition [5]: 0.076%

Structure (SMILES): c1ccc2c(Oc3nc(Nc4ccc(N5CCOCC5)cc4)c4ncn(C5CCCCC5)c4n3)cccc2c1
- activity change, negative = inhibition [1]: -2.8%
- activity change, negative = inhibition [2]: -18%
- activity change, negative = inhibition [3]: -66.5%
- activity change, negative = inhibition [4]: -59.5%
- activity change, negative = inhibition [5]: -8.02%

Structure (SMILES): CC(C)NC(=O)c1ccc2c(=O)n(C(C)C)c3nn(Cc4ccccc4F)c(=O)n3c2c1
- activity change, negative = inhibition [1]: 0.869%
- activity change, negative = inhibition [2]: 0.765%
- activity change, negative = inhibition [3]: 7.34%
- activity change, negative = inhibition [4]: -0.184%
- activity change, negative = inhibition [5]: 3.59%

Structure (SMILES): C=CCNC(=O)N[C@H]1C[C@@H](C(=O)N[C@@H](CCS(C)(=O)=O)C(N)=O)N(C(=O)CSC)C1
- activity change, negative = inhibition [1]: -4.24%
- activity change, negative = inhibition [2]: -9.63%
- activity change, negative = inhibition [3]: -3.92%
- activity change, negative = inhibition [4]: -13.8%
- activity change, negative = inhibition [5]: -8.94%

Structure (SMILES): CNC(=O)c1ccc2c(c1)CCO[C@H]2CCN1CCN(c2ccc(C(N)=O)cc2)CC1
- activity change, negative = inhibition [1]: -5.52%
- activity change, negative = inhibition [2]: -9.48%
- activity change, negative = inhibition [3]: 3.32%
- activity change, negative = inhibition [4]: -25.4%
- activity change, negative = inhibition [5]: -1.16%

Structure (SMILES): COCCN1C[C@@H]2[C@H](c3ccccc31)[C@@H](CO)[C@@H](c1ccccc1)N2C(=O)COC(C)=O
- activity change, negative = inhibition [1]: -16.7%
- activity change, negative = inhibition [2]: -12.8%
- activity change, negative = inhibition [3]: -27.9%
- activity change, negative = inhibition [4]: -17.2%
- activity change, negative = inhibition [5]: -13.2%

Structure (SMILES): CC1(C)[C@@H](O[C@H]2O[C@H](C(=O)O)[C@@H](O)[C@H](O)[C@H]2O[C@@H]2O[C@H](C(=O)O)[C@@H](O)[C@H](O)[C@H]2O)CC[C@]2(C)[C@H]3C(=O)C=C4[C@@H]5C[C@@](C)(C(=O)O)CC[C@]5(C)CC[C@@]4(C)[C@]3(C)CC[C@@H]12
- activity change, negative = inhibition [1]: -5.99%
- activity change, negative = inhibition [3]: 2.98%

Structure (SMILES): Cc1cccc(NC(=O)CSc2nnc3n(C)c(=O)c4ccc(C(=O)NC5CCCC5)cc4n23)c1
- activity change, negative = inhibition [1]: -5.2%
- activity change, negative = inhibition [2]: -0.71%
- activity change, negative = inhibition [3]: -2.66%
- activity change, negative = inhibition [4]: -2.89%
- activity change, negative = inhibition [5]: 0.69%

Structure (SMILES): CN1CC2(CCN(C(=O)CCc3nc(-c4ccco4)no3)C2)OC1=O (configuration not stated)
- activity change, negative = inhibition [1]: -5.77%
- activity change, negative = inhibition [2]: -10.1%
- activity change, negative = inhibition [3]: -2.71%
- activity change, negative = inhibition [4]: -17.8%
- activity change, negative = inhibition [5]: -11.6%

Structure (SMILES): CC(C)Cn1c(=O)c2ccc(C(=O)NC(C)C)cc2n2c(=O)n(CC(=O)Nc3ccccc3F)nc12
- activity change, negative = inhibition [1]: 0.324%
- activity change, negative = inhibition [2]: 2.13%
- activity change, negative = inhibition [3]: 7.45%
- activity change, negative = inhibition [4]: -5.27%
- activity change, negative = inhibition [5]: 0.436%

Structure (SMILES): CCCS(=O)(=O)N1CCc2nnc(C3CC3)n2CC1
- activity change, negative = inhibition [1]: -2.49%
- activity change, negative = inhibition [2]: 0.658%
- activity change, negative = inhibition [3]: 1.56%
- activity change, negative = inhibition [4]: -1.45%
- activity change, negative = inhibition [5]: -0.083%

Structure (SMILES): CCC1c2ccc(C)n2CCN1C(=O)Nc1ccccc1C(F)(F)F (configuration not stated)
- activity change, negative = inhibition [1]: -4.22%
- activity change, negative = inhibition [2]: 0%
- activity change, negative = inhibition [3]: 2.07%
- activity change, negative = inhibition [4]: -8.78%
- activity change, negative = inhibition [5]: -0.258%

Structure (SMILES): COC(=O)c1ncn2c1C(=O)N(c1ccc(C(C)C)cc1)C(C)(C(=O)NCCCOC(C)C)C2 (configuration not stated)
- activity change, negative = inhibition [1]: -1.14%
- activity change, negative = inhibition [2]: 2.36%
- activity change, negative = inhibition [3]: 14.2%
- activity change, negative = inhibition [4]: 8.91%
- activity change, negative = inhibition [5]: 10.1%

Structure (SMILES): CCc1ccc(NC(=O)Cn2nc3n(CC(C)C)c(=O)c4ccccc4n3c2=O)cc1
- activity change, negative = inhibition [1]: 0.15%
- activity change, negative = inhibition [2]: 2.17%
- activity change, negative = inhibition [3]: 3.93%
- activity change, negative = inhibition [4]: -7.44%
- activity change, negative = inhibition [5]: 1.12%

Structure (SMILES): Cc1ccc(CNC(=O)Cn2ccc3cc(S(=O)(=O)N4CCC(C)CC4)ccc32)o1
- activity change, negative = inhibition [1]: 3.55%
- activity change, negative = inhibition [2]: 0%
- activity change, negative = inhibition [3]: 5.38%
- activity change, negative = inhibition [4]: -1.72%
- activity change, negative = inhibition [5]: 2.11%

Structure (SMILES): CC1CCN(S(=O)(=O)c2ccc3c(ccn3CC(=O)NCc3ccc(F)cc3)c2)CC1
- activity change, negative = inhibition [1]: 2.79%
- activity change, negative = inhibition [2]: 0.972%
- activity change, negative = inhibition [3]: 5.2%
- activity change, negative = inhibition [4]: 1.36%
- activity change, negative = inhibition [5]: 2.99%

Structure (SMILES): COc1cccc(CNc2nc3c(-c4cccc(Br)c4)nnn3c3ccccc23)c1
- activity change, negative = inhibition [1]: -9.34%
- activity change, negative = inhibition [2]: 1.82%
- activity change, negative = inhibition [3]: -6.08%
- activity change, negative = inhibition [4]: -8.9%
- activity change, negative = inhibition [5]: -6.51%

Structure (SMILES): C=C1CCCC2(C)CC3(OC)OC(=O)C(C)=C3CC12 (configuration not stated)
- activity change, negative = inhibition [1]: -1.42%
- activity change, negative = inhibition [2]: -3.85%
- activity change, negative = inhibition [3]: 4.28%
- activity change, negative = inhibition [4]: -15.9%
- activity change, negative = inhibition [5]: -9.69%
